Laboratory results reported in the RNAGym collection of RNA variant scans (doi:10.7554/elife.90254).
Read counts are not given, so values of variants with three or more changes are uncertain.

B1: LINE1-mini (parent)
chain: GGCAGAGCUCAACACAGCGUGGCAAAGUGGCUGUGGCUAGACUGCC

Variants of: B1
Experiment: self-cleavage, relative activity (ratio to wild type); higher = more cleavage; in vitro, sequencing; the parent is a self-cleaving ribozyme

| Variant | self-cleavage |
| --- | --- |
| GGCAGAGCUCAACACAGCGUGGCAAAGUGCCUGUGGCUACACUGCG [G30C G40C C46G] | 0.04 |
| GGCAAAGCUCAACACAGCGUGGCAAAGUGGCUGUGACUAAACCGCC [G5A G36A G40A U43C] | 0.06 |
| UGCACAGCUCAAUACAGCGUGGCAAAGUGGCUGUGGCUAGACUGCC [G1U G5C C13U] | 0.04 |
| GGCGGAGUUCAACACAGCGAGUCCAAGUGGCUGUGGCUAGACUGCC [A4G C8U U20A G22U A24C] | 0.15 |
| GGCAGAUCUCAACAGAGCGUGGCAAAGGGGCUGUGGCUAGACUGCC [G7U C15G U28G] | 0.07 |
| GGCAGAGUUUAACACUGCGUGGCAAGGUGGCUGUGGCUAGACUGCC [C8U C10U A16U A26G] | 0.03 |
| GGCCGAGCUCAACACAGCGUGGCAAAGUGUCUGUGGCUAGUCUGCC [A4C G30U A41U] | 0.03 |
| GGCAGUGCGCACCUCAGCGUGUCAAAGUGGCUGGGGCUAGCCUGCC [A6U U9G A12C A14U G22U U34G A41C] | 0.01 |
| GGCAGAGCUCAACACAGCGUGGCAAAGUGGCUGUGACUAGACGGUC [G36A U43G C45U] | 0.11 |
| GGCAGAGCUCAAAACAUAGUGGCAAAGUGGCUGUGGCUAGACUGCC [C13A G17U C18A] | 0.03 |
| GGCAGAGCACAACACAGCGUGGCAGAGUGUCUGUGGCUAGACUGUC [U9A A25G G30U C45U] | 0.08 |
| GGCACAUCUCCACACAGCGUGGCAAAGUGGCUGUGGCUAGACUGCC [G5C G7U A11C] | 0.15 |
| GGCAGAACUCAACACAGCGUGGCAAAGAGGCUGUGGCUCGACUGCC [G7A U28A A39C] | 0.22 |
| GGCAGAGCUCAACGCAGCGUGGCAAAGUUGGUCUGGCUAGACUGCC [A14G G29U C31G G33C] | 0.03 |
| GGCAGAGCUCAACACAGCGCAGCAAAGUGGCUGUGGCUAGUCUGCC [U20C G21A A41U] | 0.37 |
| GGGAGAGCUCAACACUGCGUGGAAAAGAGGCUGUGGCUAGACUUCC [C3G A16U C23A U28A G44U] | 0.66 |
| GGCAGAGCUCAACAGAGCGUGGCAAAGUGGAUAUGGCUAGACUGAC [C15G C31A G33A C45A] | 0 |
| GGCAGAGCUCAACACAGCGUGGCAAACCGGCUGUGGCUAGACUGCU [G27C U28C C46U] | 0.08 |
| GGCAGAGCUCAACACAGCGUUGCAAAGUGGCUGUGGCUAAACUACC [G21U G40A G44A] | 0.03 |

| Variant | self-cleavage |
| --- | --- |
| GGCAGAGCUCAACACAGCGUGGUAUAGUGGCUGUGGCUAGACCGCG [C23U A25U U43C C46G] | 0.04 |
| GGUAGAGCUCAACAUAACGUGGCAAAGUGGCUGUGGCUAGACUGCC [C3U C15U G17A] | 0.09 |
| GGGAGAGCUCAACACAGCGUGGCAAAGUGGCUGUGACUAAACUGCC [C3G G36A G40A] | 0.69 |
| GGCCGAGCUCAAAAAAGCGUGGCAAAGUAGCUGUGGCCAGACUGAU [A4C C13A C15A G29A U38C C45A C46U] | 0.02 |
| GGCAGAGCUCAACACAGCGCGGCAAAGUGGUUGUGGUUAGACAGCC [U20C C31U C37U U43A] | 0.01 |
| GGCAGAGCUCAACAAAGCGUGGCAAUGUGGCUGUGGCUAGACUGUC [C15A A26U C45U] | 0.03 |
| GGCAGAGCUCAACCCAGCGUGGGAAAGUGGCUGUGGCUAGACUGUC [A14C C23G C45U] | 0.01 |
| AGCAGAGCUAAACACAGCGUGGCAAAGUGGCUGUGGCUAGAUAGCC [G1A C10A C42U U43A] | 0.01 |
| UGCAGAGCUCAACACAGGGUGGCAAACUGGCUGUGGCUAGACUGCC [G1U C18G G27C] | 0.07 |
| GGGAGAGAUCAACACAGCGUGGCAAAGAGGCUGUGGCUAGGCUGCC [C3G C8A U28A A41G] | 0.15 |
| GGCAAAGCUCAACAAAGCGUGCCAAAGUGGCUGUGGCCAGACCGCU [G5A C15A G22C U38C U43C C46U] | 0 |
| CGCAGAGCUCAACACAGCGGGUCAAAGUCGCUGAGACAAGACUGCU [G1C U20G G22U G29C U34A G36A U38A C46U] | 0.01 |
| GGCAGAGCUCACCUCAGCGUGGCAGAGUGGCUGUGACUAGACGGCC [A12C A14U A25G G36A U43G] | 0.03 |
| GGCAGAGCACACCACGGCGUGUCAAAGUGGCUGUGGCUAGACUGCC [U9A A12C A16G G22U] | 0.02 |
| GGCAUUGCUCAACACAGCGAGGCAAAGUGGGUGUGGCUAGACUACC [G5U A6U U20A C31G G44A] | 0.03 |
| GGCAAACCUCAACACAGCGUGGCAAAGUGGCUGUUGCUAGACUGCC [G5A G7C G35U] | 0.08 |
| GGUAGAGCUCAACACAGCGUAGCAAAGUGGCUGUGGCUAGGCUGCC [C3U G21A A41G] | 1.38 |
| GGCCGAGCUCAACACAGCGUCGCAAAUUGGCUGUGGCUAGACUGCC [A4C G21C G27U] | 0.58 |
| UGCAGAGCUCAACACAGCGUGGCAAAGAGGCUGUGGCUAGCCUGCC [G1U U28A A41C] | 0.01 |

| Variant | self-cleavage |
| --- | --- |
| GGCAGAGCUCACCAAAGCCUGGCAAAGUGGCUGUGGCUAGACUGCC [A12C C15A G19C] | 0.09 |
| GGCAGAGCUCAACACAGCGAGGCUAAGUGGCUGUGGCUAGACUUCC [U20A A24U G44U] | 0.15 |
| GACAGAGCUCAACACAGCGUCGCGACGUGGGUGCGGCUAGACUGCC [G2A G21C A24G A26C C31G U34C] | 0.1 |
| GGCAGAGCUAAGCACAGCGUUGCAAAGUGGUUGUGGCUAGACUCCC [C10A A12G G21U C31U G44C] | 0.01 |
| GGCAGAGCUCAACACUGCUUGGCAAAGUGGCUGCGGCUAGACUGCC [A16U G19U U34C] | 0.01 |
| GGCAGAGCUCAACAGAGCAUGGCAACGUGGCUCUGGCUAGACUGCC [C15G G19A A26C G33C] | 0.78 |
| GGCAGAGCUGAAGACAGCGUCGCAAAGUGGCUGCGGCUAGACUGCC [C10G C13G G21C U34C] | 0.01 |
| GGCAGAGCUCAACGCAGCGUGGCAAAGUGGCGCUGGCUGGACUAAC [A14G U32G G33C A39G G44A C45A] | 0.03 |
| GGCAGAGCUCAACACAGCGUGGCAAAAUGGCUCUGGCUCGACUGCC [G27A G33C A39C] | 0.02 |
| GGCAGAGCUCAACAUAGCGUGGCAAUGUGGUUGUGGGUAGACUACC [C15U A26U C31U C37G G44A] | 0.05 |
| GGCAAAGCUCGACAUAGCGUGGCCAAGUGGCUGUGGCUAGACGGCC [G5A A11G C15U A24C U43G] | 0.02 |
| GGCUGAGCUCUACACAGCGUGGCAACGUCGCUGUGGCUAGACUGCC [A4U A11U A26C G29C] | 0.01 |
| GGCAGAGGUCAACACAACGUGGCAAAGUGGCUGUGGCUAGAUGGCC [C8G G17A C42U U43G] | 0.05 |
| UGCACAGCUCAACACAGCGUGGCAAAGUGGCUGUUGCUAGACUGCC [G1U G5C G35U] | 0.03 |
| GCCAGAGCUCAACGCAGCCUGGCAAUGUGGCUGUGGCUAGACUGCC [G2C A14G G19C A26U] | 0.03 |
| UGCAGACCUCAACGCAGCGUGGCGAAGUGCCUGUGGAUAGAAUGCA [G1U G7C A14G A24G G30C C37A C42A C46A] | 0.03 |
| GUCAGAGCUCAACCCCUCGUGGGAAAGACGAUGUGGCUAGACUGAC [G2U A14C A16C G17U C23G U28A G29C C31A C45A] | 0.01 |
| GGCAGAGCUCAGCACAUCGUGGCCAAGUGGCUGUGGCUAGACUGCC [A12G G17U A24C] | 0.02 |
